{"source": "patent US20230279089A1", "about": "(GlaxoSmithKline, published 2023)", "binders": {"B1": {"name": "13Y039-3E07-2944 (antibody, human IgG1, kappa)", "heavy": "QVQLQQWGAGLLKPSETLSLTCAVYGGSFFGDYWSWIRQPPGKGLEWIGEIDWSGATNYNPSLKSRVTISVDTSKNQFSLKLSSVTAADTAVYYCARGGSKELSFDIWGQGTMVTVSS[gap - human IgG1 constant region with L235A G237A (EU numbers)]", "light": "DIQMTQSPSSLSASVGDRVTITCQASQDIANYLNWYQQKPGKAPKLLIYDASNLETGVPSRFSGSGSGTDFTFTISSLQPEDIATYYCQQADTLPFTFGGGTKVEIKRTVAAPSVFIFPPSDEQLKSGTASVVCLLNNFYPREAKVQWKVDNALQSGNSQESVTEQDSKDSTYSLSSTLTLSKADYEKHKVYACEVTHQGLSSPVTKSFNRGEC", "notes": "Fully human IgG1 LAGA, kappa; HEK expressed; also called HEK-expressed 13Y039-3E07-2944"}}, "assay_in_all_cases": "cell-based or functional assay", "key": {"Cyno TLL1": {"biological_target": "T1, Cyno TLL1 (cyno, UniProt A0A1D5QYV0 148-1013 (rhesus entry))", "T1 sequence": "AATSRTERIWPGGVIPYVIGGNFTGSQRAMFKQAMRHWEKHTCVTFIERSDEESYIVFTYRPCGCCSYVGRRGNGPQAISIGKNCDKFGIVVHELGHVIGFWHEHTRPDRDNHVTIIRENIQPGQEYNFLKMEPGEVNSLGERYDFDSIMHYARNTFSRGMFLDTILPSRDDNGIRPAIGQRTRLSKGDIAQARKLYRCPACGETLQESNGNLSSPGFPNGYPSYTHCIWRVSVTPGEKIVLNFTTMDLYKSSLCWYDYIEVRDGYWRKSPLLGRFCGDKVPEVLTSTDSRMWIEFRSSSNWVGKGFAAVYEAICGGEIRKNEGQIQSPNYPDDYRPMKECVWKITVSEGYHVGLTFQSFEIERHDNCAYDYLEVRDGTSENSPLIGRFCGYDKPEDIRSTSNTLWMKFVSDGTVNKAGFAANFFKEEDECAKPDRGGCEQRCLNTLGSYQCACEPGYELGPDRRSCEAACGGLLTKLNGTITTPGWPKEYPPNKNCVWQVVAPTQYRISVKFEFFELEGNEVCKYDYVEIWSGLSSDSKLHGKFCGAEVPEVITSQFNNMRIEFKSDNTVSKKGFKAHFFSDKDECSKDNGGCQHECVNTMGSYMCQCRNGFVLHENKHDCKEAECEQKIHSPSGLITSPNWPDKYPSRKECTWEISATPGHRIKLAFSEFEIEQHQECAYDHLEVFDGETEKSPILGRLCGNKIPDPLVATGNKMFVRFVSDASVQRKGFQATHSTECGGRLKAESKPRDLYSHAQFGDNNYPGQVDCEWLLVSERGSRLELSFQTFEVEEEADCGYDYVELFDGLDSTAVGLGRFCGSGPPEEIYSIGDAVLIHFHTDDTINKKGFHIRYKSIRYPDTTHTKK"}, "Human TLL1": {"biological_target": "T2, Human TLL1 (human, UniProt O43897 148-1013, limits assumed)", "T2 sequence (looked up)": "T1 sequence with V281L, G350S, D538E, E617D, A833S"}, "Human BMP1-1": {"biological_target": "T3, Human BMP1-1 (human, UniProt P13497-2 121-730, limits assumed)", "T3 sequence (looked up)": "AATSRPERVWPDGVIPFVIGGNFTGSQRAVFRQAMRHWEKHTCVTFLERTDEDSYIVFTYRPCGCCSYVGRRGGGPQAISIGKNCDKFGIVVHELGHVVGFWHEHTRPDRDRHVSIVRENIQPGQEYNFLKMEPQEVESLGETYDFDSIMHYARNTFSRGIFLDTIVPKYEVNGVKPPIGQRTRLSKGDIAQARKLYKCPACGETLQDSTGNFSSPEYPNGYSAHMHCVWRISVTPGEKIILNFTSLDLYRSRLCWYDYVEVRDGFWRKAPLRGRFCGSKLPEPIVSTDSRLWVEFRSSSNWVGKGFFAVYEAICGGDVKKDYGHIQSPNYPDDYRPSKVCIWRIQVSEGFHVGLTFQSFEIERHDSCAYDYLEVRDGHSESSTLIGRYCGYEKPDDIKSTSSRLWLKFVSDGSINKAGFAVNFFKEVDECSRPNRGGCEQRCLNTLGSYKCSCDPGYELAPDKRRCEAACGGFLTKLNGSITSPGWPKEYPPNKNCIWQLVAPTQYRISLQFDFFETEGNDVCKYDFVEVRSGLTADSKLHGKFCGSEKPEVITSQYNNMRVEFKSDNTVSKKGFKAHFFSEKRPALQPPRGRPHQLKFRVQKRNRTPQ"}}, "note": "Where a chain is given by its changes, count along the chain named.", "data": [{"binder": "B1", "values": [{"measurement": "IC50, FRET enzyme activity, 750 pM biotinylated cynoTLL-1", "setting": "Cyno TLL1", "value": 0.1, "unit": "nM"}, {"measurement": "IC50, FRET enzyme activity, 250 pM biotinylated huTLL-1", "setting": "Human TLL1", "value": 0.14, "unit": "nM"}, {"measurement": "IC50, FRET enzyme activity, 62.5 pM huBMP1", "setting": "Human BMP1-1", "value": 0.4, "unit": "nM"}]}]}
